Results on 57 sequences are retold here after the supplement of paper PMC11417369.

The other results are listed elsewhere or left out.

The subject of the assay is PF3D7_0420300 AP2 domain 1 (GST-tagged). The experiment in a line: gcPBM binding intensity (ln(normalized median fluorescence intensity)); higher = stronger DNA binding. The essentials: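 Binding of GST-tagged P. falciparum DNA-binding domains, expressed in E. coli and used at about 25 μg on average, was carried out for 1 h in 1× PBS containing 1% milk, 0.2 mg/ml BSA, 0.5% salmon testes DNA and 0.03% Triton X-100. The target was an Agilent 4 × 180k array of primer-extended double-stranded 36-bp intergenic genomic probes plus negative controls, read with Alexa488 anti-GST antibody at 488 nm. Binding intensity is the highest Masliner-normalised natural-log median intensity across replicate spots of either probe orientation.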
“TAAAAAATAAAATACACACACATATATATATATATA [CACACA_site1323]”: the “gcPBM binding intensity (ln)” value stood at 9.51.

For “TATATTCTTTTTTTAACACACAAAAAAAATAAAATA [CACACA_site1898]”, the “gcPBM binding intensity (ln)” value came out at 9.19. Take “GAGGGAAAAAATAATCGTACAAAGAAAAAAAAAAAT [XGTACX_site7361]”: the “gcPBM binding intensity (ln)” value worked out at 9.42. “AAAAAAATTAAAGATTGTACTTGATTTTTCATTTTA [XGTACX_site6685]”: the “gcPBM binding intensity (ln)” value turned out to be 8.97. Regarding “TTTTTTTCATAAATTAGGTAATGTCGCAGGGGGACA [TGCATGCA_negctrl_site556]”, the “gcPBM binding intensity (ln)” value came out at 9.29. As to “AAAGAATTGTATAAAAGTACATATTTGTTTGTTTTA [XGTACX_site7380]”, the “gcPBM binding intensity (ln)” value stood at 9.13. In the case of “ATTTATTAAAAGAAATGTACAGAAAATGTTTGGAAT [XGTACX_site7187]”, the “gcPBM binding intensity (ln)” value stood at 9.26. The same measure for “AAGAAAAAAAAGATAATAATAATAATAATAAAATGA [TGCATGCA_negctrl_site398]”: 9.41.

Regarding “TATATGGTATGTATTACACACATATCACATATATAT [CACACA_site3045]”, the “gcPBM binding intensity (ln)” value is 9.57. “TGGTAAATTGAGAATCGTACATTAAAAAACATAAAA [XGTACX_site3253]”: the “gcPBM binding intensity (ln)” value stood at 9.25. With “GGAATGGTACATGATACACACACGCACATATAAATA [CACACA_site7581]”, the “gcPBM binding intensity (ln)” value is 9.74. The same measure for “TTTTCTATATAGTGTTGTACATTATTGTGTAAAAAT [XGTACX_site3223]”: 9.21; for “ATATTTTATACTTGCACACAAAATATATTAAAATGG [CACACA_site5139]”: 9.34; for “ATAAAATTGGAGCAAACACACAAGGTTGAAATTAAC [CACACA_site506]”: 9.72. The same measure for “TTATGTTGTAAATGCACACATACAAATACATATACA [CACACA_site1368]”: 9.33. The same measure for “TACAATATAAAATACACACGCACACCGAAAAAAAAA [CACACA_site5865]”: 9.92; for GATAAAATGAGACCAGTGCATTATTAGTTGTACACC: 9.44. Consider “TTTTTTGCTAAGTGTACACAAATGTTTATTAATTTA [CACACA_site5859]”, for which the “gcPBM binding intensity (ln)” value came out at 9.29. For “TATACATATTTATACACACACACATATATTTATATA [CACACA_site6727]”, the “gcPBM binding intensity (ln)” value stood at 10. In the case of “TGTGCTTATCCTAACACACACAACATATAAGAAAAA [CACACA_site3319]”, the “gcPBM binding intensity (ln)” value came to 9.58. As to “AAAAAATAAAAAATATGTACACATTCAAAATTTTAC [XGTACX_site8479]”, the “gcPBM binding intensity (ln)” value stood at 9.21.

For “AAAAAGAAAAAAAACACACACAAATATAAATAAATA [CACACA_site1183]”, the “gcPBM binding intensity (ln)” value worked out at 9.98. Regarding “ATATATATATATATATGTACATATTACATTACTTAT [XGTACX_site749]”, the “gcPBM binding intensity (ln)” value is 9.35. The same measure for “ATAAAACAAGCAAATCGTACAAAAGGATAATATATA [XGTACX_site5592]”: 9.77. With “AAAAAAAAAAAAAACACACACACACCCATACCCATA [CACACA_site5577]”, the “gcPBM binding intensity (ln)” value was 10.1. On to “ATGTATGGTTTATATGTTCATTTGTTCACCTATTTA [CACACA_negctrl_site1533]”, for which the “gcPBM binding intensity (ln)” value stood at 9.93.

In the case of “ATATATATTTAAGAGGGTACAAAAATTTATGAGCAT [XGTACX_site6156]”, the “gcPBM binding intensity (ln)” value worked out at 9.34.

For the sequence “TCTTTGGTAATATATATGTATAAATATAAATATATA [CACACA_negctrl_site1566]”, the “gcPBM binding intensity (ln)” value turned out to be 9.01.

“ATATATATATATGTTAGTACATAACAAGTGTGCATA [XGTACX_site1527]”: the “gcPBM binding intensity (ln)” value worked out at 9.44.

Turning to “ATATACAAAGAAGCAGTGCATATTTTCTTATTTATG [GTGCAC_site9567]”, the “gcPBM binding intensity (ln)” value worked out at 9.18. As to “TGAAAGAATAGAATGAGTACTAATTTAAATTACACT [XGTACX_site1120]”, the “gcPBM binding intensity (ln)” value came to 9.29.

Take “TTCTTTATATATTTTTGTACATATTTATTTTTAGAG [XGTACX_site6757]”: the “gcPBM binding intensity (ln)” value was found to be 9.45. In the case of “TTGATTTCATTTTAAGTGCATAACTAATATTATATA [GTGCAC_site9713]”, the “gcPBM binding intensity (ln)” value was found to be 9.14. “TAAGTACGACTTGACACACATACACATATATATATA [CACACA_site1286]”: the “gcPBM binding intensity (ln)” value turned out to be 9.5. “CAAATACACCAACACACACACACAAAAAAAAAAAAA [CACACA_site514]”: the “gcPBM binding intensity (ln)” value is 9.98.

In the case of “ATTACCAACAGATCTTGTACATATTAAAGCATCTTA [XGTACX_site2361]”, the “gcPBM binding intensity (ln)” value turned out to be 9.12. In the case of “CTATTCTATTTTTATTGTACATATATATAATTTGAA [XGTACX_site389]”, the “gcPBM binding intensity (ln)” value is 9.31. In the case of “AAAAAAATATAAATACGTACATATATATATATATAT [XGTACX_site432]”, the “gcPBM binding intensity (ln)” value stood at 9.21. The same measure for “TGGAATAATACGCGTACACACATATAAATATTAATA [CACACA_site6211]”: 9.58. For the sequence “ATATAATGGCTAAATAGTACAATATAATATTTTTTA [XGTACX_site8922]”, the “gcPBM binding intensity (ln)” value was found to be 9.17. As to “ACACATGAATATTGTAGTACGGCAATTAATATAATA [XGTACX_site4589]”, the “gcPBM binding intensity (ln)” value was 9.39. As to “AGAAAGGAAAAAACCTCACACATGCTTTTAATAGTA [CACACA_site4602]”, the “gcPBM binding intensity (ln)” value stood at 9.27. In the case of “ACTATATATATAAGTGCATGTTCATTATACCTAAAG [TGCATGCA_site696]”, the “gcPBM binding intensity (ln)” value was found to be 9.22. With “AGTAAATTATATATCTGTACATATATATATGTGTAT [XGTACX_site5519]”, the “gcPBM binding intensity (ln)” value amounted to 9.48. The same measure for “TTTTAAAAAAATATAATACACACCAAAAATATGCAC [CACACA_site2131]”: 9.55; for “AAAAATTCATTTTTATGTACGTACAAATTCTTCGTT [XGTACX_site2471]”: 9; for “CTCACAAATGAATACACACAAACATATATATTTATA [CACACA_site1620]”: 9.64. Regarding “AATCTATATTAATACACACACACATATATTTATATA [CACACA_site7732]”, the “gcPBM binding intensity (ln)” value was 10.1. Regarding “TTTATTTTGACAGATTGTACACTTTATACATGTTTT [XGTACX_site2356]”, the “gcPBM binding intensity (ln)” value is 9.59. As for “TGAAAAAAGAAAAATACACACATATAACATAATATA [CACACA_site7126]”, the “gcPBM binding intensity (ln)” value was found to be 9.83.

As for “GTATATATTTCCAGAAGTACTTATTTTTATGTATGT [XGTACX_site4079]”, the “gcPBM binding intensity (ln)” value came to 9.36. The same measure for “TTATATTTATTGATATGTACATATTATAATTAATTA [XGTACX_site586]”: 9.08; for “TTTTAATATTTTGCCTGTACATAAAAGTGAGAAGAT [XGTACX_site2503]”: 9.33; for “AAAAATGCCAGAAAACGTACTCGGATTTTCTAATAT [XGTACX_site6552]”: 9.17. The same measure for “TGATTACATATGATGTGTACCTAATTTTGTTTACAC [XGTACX_site7032]”: 9.34; for “TATAAAGGTTGGTACTGTACAATATAAGAAAAAAAA [XGTACX_site435]”: 9.23. Take “AAATAGTTCATAAAAAGTACAAAATTTTTATCCGTA [XGTACX_site2796]”: the “gcPBM binding intensity (ln)” value amounted to 9.26.
